Out of some 410,000 compounds screened, about 530 (0.13%) were called active. Inconclusive results, whose numbers are uncertain, are shown with a selection of clear calls. The call rests on the fitted dose curve; in most records, active means well fitted inhibition curve with a large enough effect; inconclusive means small, poorly fitted or top-dose-only effect, or another doubt; inactive means no such curve, though single readings can be large or run the other way. Where the call is inconclusive, the potency comes from a doubtful curve fit.
Test: qHTS of GLP-1 Receptor Inverse Agonists: Cytotox Screen
Details: HEK293 cAMP-luciferase reporter cells, luminescence, 24 h; activity change, negative = inhibition: at 38.3 µM (top of the series) unless noted
Procedure, shortened: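 1536-well qHTS counterscreen of the MLSMR; 200 cells/uL, 12 h pre-incubation, 23 nL cpd, 24 h at 37 deg C 5% CO2, luciferase detection reagent, 12 min RT, luminescence. Inhibition = undesired.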
On the % scale 0 is the no-effect control and ±100 the full control effect; potency means the concentration at half of the fitted maximal effect.

Q: With `Cc1cccc(CN2CCCC(C(=O)c3ccc4c(c3)OCO4)C2)n1` (stereo not given) as the compound, how does the Potency read?
A: inconclusive: 28.2 µM [inhibitor, single point]

Q: Which Potency does the source give for `COC(=O)c1ccc(Nc2cc(C)nc3ccc(C)cc23)cc1` here?
A: inconclusive: 7.94 µM [inhibitor, partial curve, poor fit]

Q: With `CCCCn1nnnc1C(c1cccc2ccccc12)N1CCC2(CC1)C(=O)NCN2c1ccccc1` (stereo not given) as the compound, how does the Potency read?
A: inconclusive: 10 µM [inhibitor, single point]

Q: For `O=C(OC(c1ccc(NS(=O)(=O)c2ccccc2)cc1)(C(F)(F)F)C(F)(F)F)c1ccccc1`, which Potency is on record?
A: inconclusive: 28.2 µM [inhibitor, single point]

Q: Which Potency does the source give for `CCC1C(c2ccccc2)N(C)C(c2ccccc2)CC1(O)c1ccccc1` (stereo not given) here?
A: inconclusive: 20 µM [inhibitor, single point]

Q: For `CCCOc1ccc(C(=O)C(CN2CCOCC2)c2ccccc2)cc1` (stereo not given), which Potency is on record?
A: inconclusive: 22.4 µM [inhibitor, single point]

Q: With `C[C@@H]1CN([C@H](C)CO)S(=O)(=O)c2ccc(C#CC3CCCC3)cc2O[C@H]1CN(C)C(=O)Cc1ccccc1` as the compound, how does the Potency read?
A: inconclusive: 28.2 µM [inhibitor, single point]

Q: With `Cc1ccc(C(=O)N[C@@H](C)CN2C3=NC[C@H](Cc4ccccc4)N3C[C@H]2Cc2ccc(O)cc2)cc1Br` as the compound, how does the Potency read?
A: inconclusive: 28.2 µM [inhibitor, single point]

Q: Which Potency does the source give for `Cc1ccc(NS(=O)(=O)c2ccc(Cl)c(NC(=S)NC(=O)C3CCCCC3)c2)cc1Cl` here?
A: inconclusive: 22.4 µM [inhibitor, single point]

Q: Which “activity change, negative = inhibition” value does the source give for `Cc1ccccc1NC(=O)CCl` here?
A: inactive: -11%

Q: With `O=c1[nH]c2ccccc2n1C1CCN(C(c2ccccc2OC(F)(F)F)c2nnnn2Cc2ccccc2)CC1` (stereo not given) as the compound, how does the Potency read?
A: inconclusive: 10 µM [inhibitor, partial curve, poor fit]

Q: For `Cc1cccc(C(=O)NC(=S)Nc2cccc3nc(C)ccc23)c1`, which Potency is on record?
A: inconclusive: 28.2 µM [inhibitor, single point]

Q: Which Potency does the source give for `c1ccc(P(c2ccccc2)c2ccccn2)cc1` here?
A: inconclusive: 28.2 µM [inhibitor, single point]

Q: With `O=C(NN1C(=O)/C(=C/c2ccc(O)c(O)c2)SC1=S)c1ccccc1` as the compound, how does the Potency read?
A: inconclusive: 12.6 µM [inhibitor, single point]

Q: For `COc1cc2c(c(OC)c1OC)-c1ccc(O)c(=O)cc1[C@@H](NC(C)=O)CC2`, which Potency is on record?
A: inconclusive: 7.94 µM [inhibitor, partial curve, poor fit]

Q: For `NC1=C(Br)C(=O)c2ncccc2C1=O`, which Potency is on record?
A: active: 3.98 µM

Q: Which “activity change, negative = inhibition” value does the source give for `Oc1cccc2nc3ccccc3nc12` here?
A: inactive: -0.694%

Q: For `CN(CC(=O)Nc1cccc(S(=O)(=O)N2CCOCC2)c1)CC(=O)Nc1ccc(Cl)c(C(F)(F)F)c1`, which Potency is on record?
A: inconclusive: 17.8 µM [inhibitor, single point]

Q: With `CC(C)CC(NC(=O)CCCNC(=O)CCC(=O)OC1O[C@H]2OC3(C)CC[C@H]4[C@H](C)CCC(C1C)C24OO3)C(=O)O` (stereo not given in full) as the compound, how does the Potency read?
A: inconclusive: 8.91 µM [inhibitor, partial curve]

Q: Which Potency does the source give for `CCCCCCCSc1cc(OC)c(CCN(C)C)cc1OC` here?
A: inconclusive: 28.2 µM [inhibitor, single point]

Q: For `O=[N+]([O-])c1ccc(Sc2n[nH]c(-c3ccc(Cl)cc3Cl)n2)nc1`, which Potency is on record?
A: inconclusive: 31.6 µM [inhibitor, single point]

Q: For `CC1=CC(=O)OC2CC3OC4C[C@@H](C)C5OC6CC7O[C@]8(C)C/C=C\C9OC%10CC%11OC(CC(C)C%12OCCO%12)CC(O)[C@]%11(C)OC%10CC9OC8C[C@]7(C)O[C@]6(C)CCC5OC4C[C@]3(C)OC12` (stereo not given in full), which “activity change, negative = inhibition” value is on record?
A: inactive: -5.45%

Q: For `Cc1ccc2nc(N(CCCN(C)C)C(=O)c3ccc(S(=O)(=O)N4CCc5ccccc5C4)cc3)sc2c1`, which Potency is on record?
A: inconclusive: 10 µM [inhibitor, single point]

Q: Which Potency does the source give for `Cc1[nH]c2ccccc2c1C(c1ccccc1)c1cccs1` (stereo not given) here?
A: inconclusive: 28.2 µM [inhibitor, single point]

Q: For `COc1ccc(CCN2C(=O)c3[nH]nc(-c4ccccc4O)c3C2c2cccc(OC)c2)cc1` (stereo not given), which Potency is on record?
A: inconclusive: 28.2 µM [inhibitor, single point]

Q: For `COC(=O)C1=C(C)N(Cc2ccccc2)C(=NCc2ccccc2)N[C@H]1c1cccc(F)c1`, which Potency is on record?
A: inconclusive: 11.2 µM [inhibitor, single point]

Q: Which Potency does the source give for `O=C(NNc1nc(-c2ccc(Cl)cc2)cs1)c1ccco1` here?
A: inconclusive: 10 µM [inhibitor, single point]

Q: Which Potency does the source give for `CCOC(=O)[C@]12Cc3cc(OC)ccc3[C@H]1N(C1CCCCC1)C(=O)c1cc(OC)ccc12` here?
A: inconclusive: 28.2 µM [inhibitor, single point]

Q: For `CC12CN3CC(C)(CN(C1)P3(=O)Oc1ccccc1)C2=O` (stereo not given), which “activity change, negative = inhibition” value is on record?
A: inactive: -12.3%

Q: Which Potency does the source give for `CCN(CC)CCN(C(=O)CCS(=O)(=O)c1ccccc1)c1nc2c(C)cc(C)cc2s1` here?
A: inconclusive: 14.1 µM [inhibitor, single point]

Q: For `CCOC(=O)C1=C(N)Oc2cc(O)ccc2C1c1cccc(Cl)c1` (stereo not given), which Potency is on record?
A: inconclusive: 10 µM [inhibitor, single point]

Q: Which Potency does the source give for `Oc1cc2c(cc1O)[C@H]1c3ccc(O)c(O)c3OC[C@@]1(O)C2` here?
A: inconclusive: 28.2 µM [inhibitor, single point]

Q: Which Potency does the source give for `CCOc1ccc(-c2cc(C)[n+](CCc3ccc(OC)c(OC)c3)c(-c3ccc(OCC)cc3)c2)cc1` here?
A: inconclusive: 11.2 µM [inhibitor, single point]

Q: Which Potency does the source give for `COc1ccc(C=CC(=O)c2c(OC)cc(OC)c(OC)c2O)cc1` here?
A: inconclusive: 28.2 µM [inhibitor, single point]

Q: With `CC1C(OC(=O)CCC(=O)NC(C)(C)CO)O[C@H]2OC3(C)CC[C@H]4[C@H](C)CCC1C24OO3` (stereo not given in full) as the compound, how does the Potency read?
A: inconclusive: 11.2 µM [inhibitor, partial curve, poor fit]

Q: For `O=C1Nc2ccc(Br)cc2/C1=C/C(=O)c1ccc2c(c1)OCO2`, which Potency is on record?
A: inconclusive: 28.2 µM [inhibitor, single point]

Q: Which Potency does the source give for `CN1CCN(P(=O)(c2ccccc2)c2nc3ccccc3s2)CC1` (stereo not given) here?
A: inconclusive: 11.2 µM [inhibitor, single point]

Q: Which Potency does the source give for `COc1cc2c(ccc3c4cc(OC)c(OC)cc4c[n+](C)c23)cc1O` here?
A: inconclusive: 10 µM [inhibitor, partial curve, poor fit]

Q: Which “activity change, negative = inhibition” value does the source give for `Oc1ccc(Cl)cc1` here?
A: inactive: 5.43%

Q: With `CC(=O)Nc1cccc(C(=O)/C=C/c2ccc(Br)cc2)c1` as the compound, how does the Potency read?
A: inconclusive: 11.2 µM [inhibitor, single point]

Q: Which “activity change, negative = inhibition” value does the source give for `Fc1ccccc1CNC1CN2CCC1CC2` (stereo not given) here?
A: inactive: -3.67%

Q: For `O=S(=O)(O)c1cc(O)c2c(O)c(N=Nc3cc(Cl)ccc3O)c(S(=O)(=O)O)cc2c1`, which Potency is on record?
A: inconclusive: 12.6 µM [inhibitor, partial curve, poor fit]

Q: With `Cc1ccc(-c2cc(C(=O)N3CCN(c4ncccn4)CC3)c3ccccc3n2)cc1` as the compound, how does the Potency read?
A: inconclusive: 28.2 µM [inhibitor, single point]

Q: Which Potency does the source give for `CCOC(=O)[C@]12Cc3ccc(C)cc3[C@H]1N(C1CCCCC1)C(=O)c1ccccc12` here?
A: inconclusive: 28.2 µM [inhibitor, single point]

Q: Which Potency does the source give for `CCCCCCCCCCCCn1ccc(=N)cc1` here?
A: inconclusive: 0.501 µM [inhibitor, full curve, poor fit]

Q: For `O=c1[nH]c(=O)n(C2CCCCC2)c(O)c1/C=C/C=Nc1ccccc1`, which “activity change, negative = inhibition” value is on record?
A: inactive: 3.12%

Q: With `COC(=O)C1=C(c2ccc(OCc3ccccc3)cc2)C[C@@H]2CC[C@H]1N2C(=O)NC1CCN(Cc2ccccc2)CC1` as the compound, how does the Potency read?
A: inconclusive: 15.8 µM [inhibitor, single point]

Q: Which Potency does the source give for `COc1cc(/C=C2\SC(=S)N(Nc3ncc(C(F)(F)F)cc3Cl)C2=O)ccc1O` here?
A: inconclusive: 11.2 µM [inhibitor, single point]

Q: With `CCCCn1c(O)c(C(CC)=Nc2ccc(OC)cc2OC)c(=O)[nH]c1=O` as the compound, how does the Potency read?
A: inconclusive: 11.2 µM [inhibitor, single point]

Q: For `Cc1nc2ccccc2c(=O)n1-c1ccc(Cl)cc1[N+](=O)[O-]`, which Potency is on record?
A: inconclusive: 0.891 µM [inhibitor, full curve, poor fit]

Q: For `C=C(C(=O)c1ccccc1)C(C)CC(=O)c1ccccc1` (stereo not given), which Potency is on record?
A: inconclusive: 28.2 µM [inhibitor, single point]

Q: For `CCOC(=O)c1cccc(C2=C(CNC(=O)c3ccc([N+](=O)[O-])cc3)[C@H]3CC[C@@H](C2)N3Cc2ccccc2)c1`, which Potency is on record?
A: inconclusive: 28.2 µM [inhibitor, single point]

Q: For `CCN1CCN(c2ncnc3ccc(Br)cc23)CC1`, which “activity change, negative = inhibition” value is on record?
A: inactive: -19.9%

Q: For `COc1ccc(-n2c(C)cc(C(=O)COc3ccc(C)nc3[N+](=O)[O-])c2C)cc1`, which Potency is on record?
A: inconclusive: 20 µM [inhibitor, partial curve, poor fit]

Q: For `Clc1cccc(CN2CCc3c([nH]c4ccccc34)C2)c1Cl`, which Potency is on record?
A: inconclusive: 28.2 µM [inhibitor, single point]

Q: For `CCOc1ccc(/C=C2\SC(=S)N(C(C(=O)O)c3ccccc3)C2=O)cc1OC` (stereo not given), which Potency is on record?
A: inconclusive: 14.1 µM [inhibitor, single point]

Q: Which Potency does the source give for `FC(F)(F)c1cccc(NC(=S)NCc2ccc(Cl)cc2)c1` here?
A: inconclusive: 14.1 µM [inhibitor, single point]

Q: Which Potency does the source give for `O=C(CN1c2ccccc2Sc2ccccc21)NNC(=O)Nc1ccc(Cl)cc1` here?
A: inconclusive: 22.4 µM [inhibitor, single point]

Q: Which Potency does the source give for `CCOC(=O)c1c(NC(=O)CSc2nc3ccc(OC)cc3[nH]2)sc2c1CC(C)(C)NC2(C)C` here?
A: inconclusive: 28.2 µM [inhibitor, single point]

Q: Which Potency does the source give for `CC(=O)c1ccc(N/N=C(/C(N)=O)C2=NC(C)(C)Cc3ccccc32)cc1` here?
A: inconclusive: 12.6 µM [inhibitor, single point]
